# Test results as given in the supplement of paper PMC11876631.
# Numbering of substitutions follows the chain as printed. Numbers in names are those of the source. ± gives the standard deviation of the averaged measurements. Laboratory Escherichia coli strains with one amino-acid change in an essential protein, pooled on minimal glucose agar with carbenicillin or gentamicin at twice the control MIC (plus kanamycin and chloramphenicol for the plasmids), 48 h. Fold change of barcode share against drug-free plates; higher = less susceptible. Active = above 20 in both replicates (the paper's putatively resistant). '<' = one read or none on drug, '>' = one read or none on a drug-free plate. Shares are relative, so most strains fall below 1 when a few take over. Listed are strains with at least 15 reads on both drug-free plates, and hits; most hits rest on fewer reference reads. Replicate rank correlation about 0.5. Edits are read from barcodes.
# B1: ispD V104P (protein)
# chain: MATTHLDVCAVVPAAGFGRRMQTECPKQYLSIGNQTILEHSVHALLAHPRVKRVVIAISPGDSRFAQLPLANHPQITVVDGGDERADSVLAGLKAAGDAQWVLPHDAARPCLHQDDLARLLALSETSRTGGILAAPVRDTMKRAEPGKNAIAHTVDRNGLWHALTPQFFPRELLHDCLTRALNEGATITDEASALEYCGFHPQLVEGRADNIKVTRPEDLALAEFYLTRTIHQENT
# B2: ispA I76D (protein)
# chain: MDFPQQLEACVKQANQALSRFIAPLPFQNTPVVETMQYGALLGGKRLRPFLVYATGHMFGVSTNTLDAPAAAVECDHAYSLIHDDLPAMDDDDLRRGLPTCHVKFGEANAILAGDALQTLAFSILSDADMPEVSDRDRISMISELASASGIAGMCGGQALDLDAEGKHVPLDALERIHRHKTGALIRAAVRLGALSAGDKGRRALPVLDKYAESIGLAFQVQDDILDVVGDTATLGKRQGADQQLGKSTYPALLGLEQARKKARDLIDDARQSLKQLAEQSLDTSALEALADYIIQRNK
# B3: ispA V190W (protein)
# chain: B2 chain with D76I, V190W
# B4: ispF L153A (protein)
# chain: MRIGHGFDVHAFGGEGPIIIGGVRIPYEKGLLAHSDGDVALHALTDALLGAAALGDIGKLFPDTDPAFKGADSRELLREAWRRIQAKGYTLGNVDVTIIAQAPKMLPHIPQMRVFIAEDLGCHMDDVNVKATTTEKLGFTGRGEGIACEAVAALIKATK
# B5: ispF L153Q (protein)
# chain: B4 chain with A153Q
# B6: ispF L153W (protein)
# chain: B4 chain with A153W
# B7: infC I165A (protein)
# chain: MKGGKRVQTARPNRINGEIRAQEVRLTGLEGEQLGIVSLREALEKAEEAGVDLVEISPNAEPPVCRIMDYGKFLYEKSKSSKEQKKKQKVIQVKEIKFRPGTDEGDYQVKLRSLIRFLEEGDKAKITLRFRGREMAHQQIGMEVLNRVKDDLQELAVVESFPTKAEGRQMIMVLAPKKKQ
# B8: infC I165D (protein)
# chain: B7 chain with A165D
# B9: ispE V146D (protein)
# chain: MRTQWPSPAKLNLFLYITGQRADGYHTLQTLFQFLDYGDTISIELRDDGDIRLLTPVEGVEHEDNLIVRAARLLMKTAADSGRLPTGSGANISIDKRLPMGGGLGGGSSNAATVLVALNHLWQCGLSMDELAEMGLTLGADVPVFDRGHAAFAEGVGEILTPVDPPEKWYLVAHPGVSIPTPVIFKDPELPRNTPKRSIETLLKCEFSNDCEVIARKRFREVDAVLSWLLEYAPSRLTGTGACVFAEFDTESEARQVLEQAPEWLNGFVAKGANLSPLHRAML
# B10: ispE L115D (protein)
# chain: B9 chain with L115D, D146V
# B11: ispE V146P (protein)
# chain: B9 chain with D146P
# B12: ispE F145D (protein)
# chain: B9 chain with F145D, D146V
# B13: ispB F75A (protein)
# chain: MNLEKINELTAQDMAGVNAAILEQLNSDVQLINQLGYYIVSGGGKRIRPMIAVLAARAVGYEGNAHVTIAALIEAIHTATLLHDDVVDESDMRRGKATANAAFGNAASVLVGDFIYTRAFQMMTSLGSLKVLEVMSEAVNVIAEGEVLQLMNVNDPDITEENYMRVIYSKTARLFEAAAQCSGILAGCTPEEEKGLQDYGRYLGTAFQLIDDLLDYNADGEQLGKNVGDDLNEGKPTLPLLHAMHHGTPEQAQMIRTAIEQGNGRHLLEPVLEAMNACGSLEWTRQRAEEEADKAIAALQVLPDTPWREALIGLAHIAVQRDR
# B14: ispB I32D (protein)
# chain: B13 chain with I32D, A75F
# B15: ispB L132Q (protein)
# chain: B13 chain with A75F, L132Q
# B16: ispB F75Q (protein)
# chain: B13 chain with A75Q
# B17: ispB L110Q (protein)
# chain: B13 chain with A75F, L110Q
# Target: Escherichia coli (laboratory strain)
# Experiment: barcode share on antibiotic plates over drug-free plates; higher = less susceptible
# Details: antibiotic: gentamicin; 2× MIC (MIC 0.45 µg/mL)
# Method: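 A pool of E. coli strains, each edited to carry one amino-acid change in an essential protein, was grown for 48 h on minimal glucose agar with or without antibiotic; strain barcodes were sequenced; mean of two replicates.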
row,Protein,fold change of barcode share
1,B1,< 0.0171
2,B2,40.2 [active]
3,B3,> 34.8 [active]
4,B4,< 0.00152
5,B5,0.0209 ± 0.022
6,B6,< 0.00375
7,B7,< 0.0187
8,B8,< 0.0177
9,B9,> 2530 [active]
10,B10,> 45.4 [active]
11,B11,> 160 [active]
12,B12,> 1390 [active]
13,B13,< 0.0193
14,B14,145 [active]
15,B15,< 0.0135
16,B16,< 0.0208
17,B17,> 1450 [active]
